# Measurements taken from PubChem BioAssay AID485294 (National Center for Advancing Translational Sciences (NCATS), 2010).
# In all, about 370,000 compounds went through this assay and about 150 (0.041%) were called active. The shares of active, inactive and inconclusive entries below differ from those in the screen. Calls follow the shape of the dose curve; as a rule, active = well fitted inhibition curve with a large enough effect; inconclusive = small, poorly fitted or top-dose-only effect; inactive = flat fitted curve, though single readings scatter. No potency is given beside an inconclusive call; the fits are too rough.
# Molecular target: Beta-lactamase (Escherichia coli (strain K12)) (UniProt P00811)
# Chain of UniProt P00811 (P00811 whole entry, looked up): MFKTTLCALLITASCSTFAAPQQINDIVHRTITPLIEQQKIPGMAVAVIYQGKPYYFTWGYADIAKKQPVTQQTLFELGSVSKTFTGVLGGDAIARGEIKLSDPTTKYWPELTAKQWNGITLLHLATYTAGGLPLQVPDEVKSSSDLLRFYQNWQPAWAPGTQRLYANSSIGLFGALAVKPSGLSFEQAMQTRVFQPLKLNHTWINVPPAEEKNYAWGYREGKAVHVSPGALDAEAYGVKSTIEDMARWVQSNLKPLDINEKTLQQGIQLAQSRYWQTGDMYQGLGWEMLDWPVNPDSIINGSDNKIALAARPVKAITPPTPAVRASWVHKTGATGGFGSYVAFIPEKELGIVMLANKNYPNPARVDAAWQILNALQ
# Test: qHTS Inhibitors of AmpC Beta-Lactamase (assay with detergent); also: nearly all actives have a fitted effect of over 25% in size
# Details: AmpC hydrolysis of nitrocefin, absorbance 480 nm, 0.01% Triton; series mostly up to 114 µM
# How it was run: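 AmpC (5.3 nM in the dispensed reagent) in 20 mM phosphate pH 7.0 with 0.01% (detergent screen) or 0.0001% Triton X-100 was preincubated with compounds for 15 min at room temperature. Nitrocefin was then added from an 800 uM solution, and hydrolysis was followed at 480 nm.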
# Potency is read from the fitted curve at half-maximal effect; tags tell the direction and shape of the fitted curve.
row,Compound,Potency
1,N=C1S/C(=C\c2ccco2)C(=O)N1c1nccs1,inactive
2,COc1ccc(C2C(C#N)=C(N)OC3=C2C(=O)CCC3)cc1Cn1nc(C)c([N+](=O)[O-])c1C (configuration not stated),inactive
3,COc1cc(C2C(C#N)=C(C)NC(C)=C2C#N)cc(OC)c1OC,"inconclusive [inhibitor, full curve, poor fit]"
4,N#CCC(=O)Nc1ccc(C(=O)OCC(=O)C23CC4CC(CC(C4)C2)C3)cc1,inactive
5,COc1ccc(C(=O)C2CCCN(C(=O)c3cccc(N4CCCC4=O)c3)C2)cc1OC (configuration not stated),"inconclusive [inhibitor, full curve, poor fit]"
6,Cc1cc(/C=C(\C#N)C(=O)Nc2ccccc2)c(C)n1-c1ccc(F)cc1,inactive
7,Cc1sc2ncn(CC(=O)NCc3ccccn3)c(=O)c2c1S(=O)(=O)N1CCOCC1,"inconclusive [inhibitor, partial curve, poor fit]"
8,O=C1N(S(=O)(=O)c2ccccc2F)C(=O)C2(CCCC2)N1S(=O)(=O)c1ccccc1F,"inconclusive [inhibitor, full curve]"
9,O=C(NC(NNc1ccc([N+](=O)[O-])cc1)(C(F)(F)F)C(F)(F)F)c1ccc(Cl)cc1,"inconclusive [inhibitor, full curve, poor fit]"
10,O=C(NNc1nc2cc3c(cc2s1)OCO3)c1ccc(F)cc1,"inconclusive [inhibitor, full curve, poor fit]"
11,N#Cc1nc(-c2ccco2)oc1NCc1ccco1,"inconclusive [inhibitor, partial curve, poor fit]"
12,COc1ccc(-c2cc(C(=O)NNC(=O)c3csc(N4CCOCC4)n3)c3ccccc3n2)cc1OC,inactive
13,O=C(O)CN1CCN(C(c2ccccc2)c2ccccc2)CC1,"inconclusive [inhibitor, full curve, poor fit]"
14,COc1ccc(-n2nc(C(=O)NCC(=O)NCC3COc4ccccc4O3)c3ccccc3c2=O)c(OC)c1 (configuration not stated),"inconclusive [inhibitor, full curve, poor fit]"
15,COc1ccc(CN(C)C(=O)c2ccccc2OCc2c(C)noc2C)c(OC)c1,inactive
16,Cc1nnc(SC(C)C(=O)Nc2ccc(S(=O)(=O)N3CCCCC3)cc2)s1 (configuration not stated),"inconclusive [inhibitor, full curve, poor fit]"
17,CC(=O)N1CCc2cc(S(=O)(=O)NC(CC(C)C)C(=O)N3CCc4ccccc4C3)ccc21 (configuration not stated),"inconclusive [inhibitor, full curve, poor fit]"
18,COc1ccc(CN2CCC(n3nccc3NC(=O)CCOc3ccccc3)CC2)cc1C,"inconclusive [inhibitor, full curve, poor fit]"
19,CCN1CCN(Cc2cc(Br)cc(OC)c2O)CC1,"inconclusive [inhibitor, partial curve]"
20,Cc1ccc(-n2ncc3c2CC(C)(C)CC3NC(=O)c2ccccn2)cc1 (configuration not stated),inactive
21,O=C1C2C(c3ccccc3)CC=CC2[C@H](c2ccc3ccccc3c2)N1Cc1ccccc1 (some centres not stated),inactive

row,Compound,Potency
1,COc1ccccc1NC(=O)CNC(=O)c1ccccc1C,"inconclusive [inhibitor, partial curve]"
2,Cc1ccccc1C(=O)NC(NC(=S)Nc1ccc(S(N)(=O)=O)cc1)C(Cl)(Cl)Cl (configuration not stated),inactive
3,CN1CCN(Cc2c(O)c(Cl)cc3c(-c4ccccc4)cc(=O)oc23)CC1,"inconclusive [inhibitor, full curve, poor fit]"
4,COc1ccc(OC)c(NC(=O)c2nc(SCc3ccc(F)cc3)ncc2Cl)c1,inactive
5,CC1CCc2nn(CC(=O)NCCCN3CCOCC3)cc2C1 (configuration not stated),"inconclusive [inhibitor, partial curve, poor fit]"
6,O=C(O)c1ccccc1Sc1ncnc2sc3c(c12)CCC3,inactive
7,Cc1ccc(C2(CC(=O)N3CCCC3)CCOC(C(C)C)C2)cc1 (configuration not stated),"inconclusive [inhibitor, full curve, poor fit]"
8,CC(C)n1c(=NC(=O)c2ccco2)c(C#N)cc2c(=O)n3ccccc3cc21,inactive
9,COc1ccc(OC)c(/C=N/NC(=O)c2[nH]ncc2Br)c1,inactive
10,CCOc1ccc(C(=O)NC(=S)NCc2cccnc2)cc1,"inconclusive [inhibitor, full curve, poor fit]"
11,CC(C)CN(C(=O)COC(=O)CSc1ccccc1F)c1c(N)n(Cc2ccccc2)c(=O)[nH]c1=O,"inconclusive [inhibitor, full curve]"
12,COc1cc(C(=O)N(C)Cc2cccc(OC)c2OC)ccc1OCC(=O)Nc1cccc(C(F)(F)F)c1,"inconclusive [inhibitor, partial curve, poor fit]"
13,Cc1nc([N+](=O)[O-])cn1CC(O)c1ccc(Cl)cc1 (configuration not stated),"inconclusive [inhibitor, partial curve, poor fit]"
14,CC1CCCC(NC(=O)c2ccc3snnc3c2)C1C (configuration not stated),"inconclusive [inhibitor, full curve]"
15,CN(c1ccc(C(=O)NCc2ccncc2)cc1)S(=O)(=O)c1ccc(Cl)cc1,inactive
16,C#CCOCCOCCOCCNc1nc(N2CCN(C(=O)CCCCCCCCCCNC(=O)Cn3cc(CCCCCN)nn3)CC2)nc(N2CCN(C(=O)CCCCCCCCCCNC(=O)Cn3cc(CCCCCN)nn3)CC2)n1,inactive
17,Cc1cccc(C(=O)Nc2ccc(N3CCN(S(C)(=O)=O)CC3)cc2)c1,inactive
18,CCOc1ccc(CCNC(=O)COC(=O)c2c(C)nn(-c3ccccc3)c2C)cc1OCC,"inconclusive [inhibitor, single point]"
19,O=C(O)c1ccccc1NC(=O)N1c2ccccc2Sc2ccccc21,"inconclusive [inhibitor, partial curve]"
20,Cn1cccc1Cc1nnc(SCC(=O)NCc2ccccc2)n1-c1ccc(F)cc1,"inconclusive [inhibitor, partial curve, poor fit]"
21,O=C(OCc1ccc([N+](=O)[O-])cc1)C1CC(=O)N(CCc2ccccc2)C1 (configuration not stated),"inconclusive [inhibitor, single point]"
